Data: patent CN115057938A (dated 2022)

Each binder was assayed against T1, Delta变异株SARS-COV-2 RBD蛋白(Ag101) (SARS-COV-2 Delta变异株) (assay: competition ELISA: Delta RBD coated, blocks ACE2 binding).
T1 construct: domain: RBD; also called Delta variant SARS-COV-2 RBD protein

Binder	IC50
R1406 (Fc fusion, not shown: small tags and cut ends, also called 人源化多价结合蛋白 R1406; VHH-Linker-VHH-Linker-VHH-Fc区) chain (part 1 of 3): QVQLVESGGGPVQAGGSLRLSCTCSRCTFNWDGMGWFRQAPGKEREFVATISWSGQEPAYADSVKGRFTISRDKPKNTVYLQMTSLKSEDTAVYYCAAAQYTGASYSILRDQVGYDYWGQGTRVTVSA chain (part 2 of 3): QVQLVESGGGPVQAGGSLRLSCTCSRCTFNWDGMGWFRQAPGKEREFVATISWSGQEPAYADSVKGRFTISRDKPKNTVYLQMTSLKSEDTAVYYCAAAQYTGASYSILRDQVGYDYWGQGTRVTVSA chain (part 3 of 3): QVQLVESGGGPVQAGGSLRLSCTCSRCTFNWDGMGWFRQAPGKEREFVATISWSGQEPAYADSVKGRFTISRDKPKNTVYLQMTSLKSEDTAVYYCAAAQYTGASYSILRDQVGYDYWGQGTRVTVSA[human IgG1 Fc with changes not printed]	0.0148 nM
R1382 (Fc fusion, also called RX011 VHH-Fc区; 对照) QVQLVESGGGPVQAGGSLRLSCTCSRCTFNWDGMGWFRQAPGKEREFVATISWSGQEPAYADSVKGRFTISRDKPKNTVYLQMTSLKSEDTAVYYCAAAQYTGASYSILRDQVGYDYWGQGTRVTVSA[human IgG1 Fc with changes not printed]	0.0137 nM
R1407 (Fc fusion, not shown: small tags and cut ends, also called 人源化多价结合蛋白 R1407; Fc区-VHH-Linker-VHH-Linker-VHH) chain (part 1 of 3): [human IgG1 Fc with changes not printed]QVQLVESGGGPVQAGGSLRLSCTCSRCTFNWDGMGWFRQAPGKEREFVATISWSGQEPAYADSVKGRFTISRDKPKNTVYLQMTSLKSEDTAVYYCAAAQYTGASYSILRDQVGYDYWGQGTRVTVSA chain (part 2 of 3): QVQLVESGGGPVQAGGSLRLSCTCSRCTFNWDGMGWFRQAPGKEREFVATISWSGQEPAYADSVKGRFTISRDKPKNTVYLQMTSLKSEDTAVYYCAAAQYTGASYSILRDQVGYDYWGQGTRVTVSA chain (part 3 of 3): QVQLVESGGGPVQAGGSLRLSCTCSRCTFNWDGMGWFRQAPGKEREFVATISWSGQEPAYADSVKGRFTISRDKPKNTVYLQMTSLKSEDTAVYYCAAAQYTGASYSILRDQVGYDYWGQGTRVTVSA	0.0158 nM
